# In publication PMC4336329 (PLoS ONE, 2015):
# In all, about 310,000 compounds went through this assay and about 2,200 (0.71%) showed an effect of 50% or more. The effect is printed as a negative number. The list shows a part of the results.
# Biological target: human ether-à-go-go-related gene (hERG) potassium channel (human, UniProt Q12809)
# Assay: primary screen, population patch clamp on CHO cells stably expressing hERG
# Sequence of human ether-à-go-go-related gene (hERG) potassium channel (Q12809 whole entry, looked up): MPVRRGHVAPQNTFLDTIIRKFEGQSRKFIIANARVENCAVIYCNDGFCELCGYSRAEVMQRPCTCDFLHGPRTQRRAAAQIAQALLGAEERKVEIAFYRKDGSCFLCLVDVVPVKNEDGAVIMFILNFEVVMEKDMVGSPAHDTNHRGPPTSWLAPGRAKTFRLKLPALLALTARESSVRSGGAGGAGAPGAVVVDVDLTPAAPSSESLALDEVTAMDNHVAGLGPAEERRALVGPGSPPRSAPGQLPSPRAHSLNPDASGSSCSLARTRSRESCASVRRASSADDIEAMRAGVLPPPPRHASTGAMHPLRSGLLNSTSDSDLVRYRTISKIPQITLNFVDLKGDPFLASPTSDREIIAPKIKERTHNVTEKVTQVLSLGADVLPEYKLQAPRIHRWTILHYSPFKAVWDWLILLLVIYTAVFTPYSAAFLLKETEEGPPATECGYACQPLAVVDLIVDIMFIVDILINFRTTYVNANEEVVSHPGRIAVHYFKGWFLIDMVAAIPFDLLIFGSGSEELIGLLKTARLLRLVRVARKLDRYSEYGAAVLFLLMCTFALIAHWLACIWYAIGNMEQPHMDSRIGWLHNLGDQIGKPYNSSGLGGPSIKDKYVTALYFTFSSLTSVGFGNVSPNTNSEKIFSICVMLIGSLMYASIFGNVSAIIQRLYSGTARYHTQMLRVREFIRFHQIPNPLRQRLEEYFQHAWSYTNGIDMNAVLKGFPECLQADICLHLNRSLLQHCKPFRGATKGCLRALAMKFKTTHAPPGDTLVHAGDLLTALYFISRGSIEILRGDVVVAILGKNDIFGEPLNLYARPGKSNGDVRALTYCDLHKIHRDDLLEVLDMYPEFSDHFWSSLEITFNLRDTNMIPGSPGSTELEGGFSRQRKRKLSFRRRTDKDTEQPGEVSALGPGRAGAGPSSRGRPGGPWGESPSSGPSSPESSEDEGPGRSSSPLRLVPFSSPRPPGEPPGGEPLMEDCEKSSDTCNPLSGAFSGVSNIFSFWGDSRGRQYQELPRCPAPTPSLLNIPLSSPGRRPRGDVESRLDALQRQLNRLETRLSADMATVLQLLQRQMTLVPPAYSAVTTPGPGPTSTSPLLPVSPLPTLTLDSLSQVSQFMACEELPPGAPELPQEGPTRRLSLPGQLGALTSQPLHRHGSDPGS
row,Compound,"hERG current change (%, negative = inhibition) at 1uM"
1,OC(COc1ccc(Cl)cc1Cl)Cn1ccnc1 (stereo not shown),11.4%
2,CC(=O)c1ccc(OC(=O)C(CCS(C)(=O)=O)N2C(=O)c3ccccc3C2=O)cc1 (stereo not shown),10.9%
3,O=C(C1Cc2ccccc2CN1S(=O)(=O)c1ccc(F)cc1)N1CCCCCC1 (stereo not shown),8.92%
4,O=C(CSc1nc2ccc(S(=O)(=O)N3CCOCC3)cc2[nH]1)N1CCOCC1,11.7%
5,CCCN(c1ccc(C)cc1)c1nc(=O)c2cccnc2s1,3.01%
6,CC(=O)c1c(C)n(CCCOC(C)C)c2ccc(O)cc12,5.89%
7,COc1c(C)oc2cc(O)ccc2c1=O,8.93%
8,CN(C)CCN(C(=O)CCc1ccccc1)c1nc2c(F)cc(F)cc2s1.Cl,10.7%
9,CCOc1ccccc1NC(=O)CN(c1ccc(C)cc1)S(=O)(=O)c1c(C)n[nH]c1C,18.7%
10,Cc1ccccc1S(=O)(=O)c1cc2ccccc2nc1N,11.6%
11,CCOC(=O)c1c(C)[nH]c(=S)c(C#N)c1-c1ccc(OC)cc1,13.3%
12,Cc1ccc(NC(=O)CCCc2ccccc2)c([N+](=O)[O-])c1,17.7%
13,CCOC(=O)CNC(=O)C(=O)c1c(O)[nH]c2ccccc12,11.8%
14,CCc1ccc(OCC(=O)Nc2cccc3c2CCCC3)cc1,16.1%
15,Cc1cc(S(=O)(=O)N2CCOCC2)ccc1OCC(=O)Nc1ccc(Br)cc1F,17.7%
16,CCCCn1c(SCC(N)=O)nc2c(sc3ccccc32)c1=O,5.58%
17,CC(=O)NC(CC(=O)NC(C)c1ccc(Cl)cc1Cl)c1ccccc1 (stereo not shown),-2%
18,O=c1c2ccccc2ncn1-c1cccc(Cl)c1,9.06%
19,CC1(C(=O)N(CC(=O)NC2CCCC2)C2CCCC2)CC(=O)N=C2C=CC=CN21 (stereo not shown),20.7%
20,Cc1cc(N2CCOCC2)ncc1[N+](=O)[O-],-1.46%
21,Cc1cc(Nc2ccccc2)c2c([N+](=O)[O-])c(C)cc(C)c2n1,3.36%
22,COc1ccc(NC(=O)Cc2ccccc2F)cc1S(=O)(=O)N1CCCCC1,15.5%
23,CC(=O)NS(=O)(=O)c1ccc(NC(=O)CC(C)c2ccccc2)cc1 (stereo not shown),2.97%
24,Nc1ccccc1SCc1cn2cccnc2n1,4.81%
25,CCN(CC)CCNc1nc(-c2ccccc2)c2c(c1C#N)CC(C)(C)OC2,-49.7%
